Results published in the supplement of paper PMC12217912.
Some of the results follow. Sequences were assembled here from the parent chain. Values near 0.05 are background.

B1: TEV protease; numbered along this chain (parent)
chain: MGESLFKGPRDYNPISSSICHLTNESDGHTTSLYGIGFGPFIITNKHLFRRNNGTLVVQSLHGVFKVKDTTTLQQHLVDGRDMIIIRMPKDFPPFPQKLKFREPQREERICLVTTNFQTKSMSSMVSDTSCTFPSGDGIFWKHWIQTKDGQCGSPLVSTRDGFIVGIHSASNFTNTNNYFTSVPKNFMELLTNQEAQQWVSGWRLNADSVLWGGHKVFMVKPEEPFQPVKEATQL

Variants of: B1
Test: raw area under fraction-flipped curve 0-4 h after induction (AUC4h, not background-subtracted), DNA-recorder readout of cleavage of the substrate (dimensionless); higher = more cleavage of the substrate by the protease variant
Conditions: temperature: 34 °C; time window: 0-4 h after rhamnose induction
Procedure: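 In vivo DNA recorder in E. coli TOP10(DE3) ΔrhaA at 34 °C. Each TEVp single-site mutant (parent TEVp 0) is paired with a single-site variant of the 7-mer TEVs (canonical ENLYFQ|S). The substrate sits between flexible linkers in a Bxb1-sfGFP-TEVs-SsrA fusion, so cleavage stabilises Bxb1 and speeds flipping of a recombination array, read by NGS. The value is the raw area under the fraction-flipped curve over 0-4 h after rhamnose induction (AUC4h), with ≥20 reads per time point. It is not background-subtracted; inactive controls average about 0.047.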
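Also: Bxb1 expression induced with 0.2% (w/v) L-rhamnose at OD600 near 0.5, cultures sampled hourly, flipped fraction per protease–substrate barcode pair counted by paired-end Illumina sequencing.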

| Variant | area with substrate ENLYFQC | area with substrate ENLYFQE | area with substrate ENLYFQG | area with substrate ENLYFQI | area with substrate ENLYFQL | area with substrate ENLYFQM | area with substrate ENLYFQN | area with substrate ENLYFQP | area with substrate ENLYFQR | area with substrate ENLYFQS | area with substrate ENLYFQT | area with substrate ENLYFQW | area with substrate ENLYFQY | area with substrate ENLYFQD | area with substrate ENLYFQH | area with substrate ENLYFQK | area with substrate ENLYFQV | area with substrate ENLYFQF | area with substrate ENLYFQQ |
| --- | --- | --- | --- | --- | --- | --- | --- | --- | --- | --- | --- | --- | --- | --- | --- | --- | --- | --- | --- |
| MGESLFKGPRDYNPISSSICHLTNESDGHTTSPYGIGFGPFIITNKHLFRRNNGTLVVQSLHGVFKVKDTTTLQQHLVDGRDMIIIRMPKDFPPFPQKLKFREPQREERICLVTTNFQTKSMSSMVSDTSCTFPSGDGIFWKHWIQTKDGQCGSPLVSTRDGFIVGIHSASNFTNTNNYFTSVPKNFMELLTNQEAQQWVSGWRLNADSVLWGGHKVFMVKPEEPFQPVKEATQL [L33P] | 0.0517 | 0.0516 | 0.0481 | 0.0484 | 0.0464 | 0.0464 | 0.0443 | 0.0454 | 0.0443 | 0.0485 | 0.0502 | 0.0494 | 0.0546 |  |  |  |  |  |  |
| MGESLFKGPRDYNPISSSICHLTNESDGHTTSLYGDGFGPFIITNKHLFRRNNGTLVVQSLHGVFKVKDTTTLQQHLVDGRDMIIIRMPKDFPPFPQKLKFREPQREERICLVTTNFQTKSMSSMVSDTSCTFPSGDGIFWKHWIQTKDGQCGSPLVSTRDGFIVGIHSASNFTNTNNYFTSVPKNFMELLTNQEAQQWVSGWRLNADSVLWGGHKVFMVKPEEPFQPVKEATQL [I36D] | 0.043 | 0.0364 |  | 0.0468 | 0.0328 | 0.0461 |  | 0.0379 | 0.0419 | 0.0415 | 0.0459 | 0.0483 |  | 0.0355 | 0.0594 | 0.051 |  |  |  |
| MGESLFKGPRDYNPISSSICHLTNESDGHTTSLYGIGFGPFIIWNKHLFRRNNGTLVVQSLHGVFKVKDTTTLQQHLVDGRDMIIIRMPKDFPPFPQKLKFREPQREERICLVTTNFQTKSMSSMVSDTSCTFPSGDGIFWKHWIQTKDGQCGSPLVSTRDGFIVGIHSASNFTNTNNYFTSVPKNFMELLTNQEAQQWVSGWRLNADSVLWGGHKVFMVKPEEPFQPVKEATQL [T44W] | 0.0454 |  | 0.076 | 0.0458 | 0.0464 | 0.0631 | 0.0403 | 0.0227 | 0.0416 | 0.0455 | 0.0509 | 0.0469 |  | 0.0486 |  | 0.0477 | 0.0612 |  |  |
| MGESLFKGPRDYNPISSSICHLTNESDGHTTSLYGIGFGPFIITNKLLFRRNNGTLVVQSLHGVFKVKDTTTLQQHLVDGRDMIIIRMPKDFPPFPQKLKFREPQREERICLVTTNFQTKSMSSMVSDTSCTFPSGDGIFWKHWIQTKDGQCGSPLVSTRDGFIVGIHSASNFTNTNNYFTSVPKNFMELLTNQEAQQWVSGWRLNADSVLWGGHKVFMVKPEEPFQPVKEATQL [H47L] | 0.0581 | 0.0504 |  | 0.0437 |  | 0.04 | 0.0727 | 0.0495 | 0.0543 | 0.0594 | 0.0546 |  | 0.0579 |  | 0.0624 | 0.0531 |  |  |  |
| MGESLFKGPRDYNPISSSICHLTNESDGHTTSLYGIGFGPFIITNKHLFDRNNGTLVVQSLHGVFKVKDTTTLQQHLVDGRDMIIIRMPKDFPPFPQKLKFREPQREERICLVTTNFQTKSMSSMVSDTSCTFPSGDGIFWKHWIQTKDGQCGSPLVSTRDGFIVGIHSASNFTNTNNYFTSVPKNFMELLTNQEAQQWVSGWRLNADSVLWGGHKVFMVKPEEPFQPVKEATQL [R50D] | 0.127 |  | 0.0882 | 0.0555 | 0.0644 | 0.106 | 0.072 |  | 0.0781 | 0.0952 |  | 0.0666 | 0.0624 | 0.0673 | 0.0844 |  |  |  |  |
| MGESLFKGPRDYNPISSSICHLTNESDGHTTSLYGIGFGPFIITNKHLFRRNNGTLVVQSLHGVFKVTDTTTLQQHLVDGRDMIIIRMPKDFPPFPQKLKFREPQREERICLVTTNFQTKSMSSMVSDTSCTFPSGDGIFWKHWIQTKDGQCGSPLVSTRDGFIVGIHSASNFTNTNNYFTSVPKNFMELLTNQEAQQWVSGWRLNADSVLWGGHKVFMVKPEEPFQPVKEATQL [K68T] | 0.138 |  | 0.1 | 0.0551 |  | 0.0905 |  |  | 0.0762 | 0.103 | 0.0561 | 0.0549 | 0.0836 | 0.0798 | 0.0863 | 0.0479 | 0.0571 |  |  |
| MGESLFKGPRDYNPISSSICHLTNESDGHTTSLYGIGFGPFIITNKHLFRRNNGTLVVQSLHGVFKVKLTTTLQQHLVDGRDMIIIRMPKDFPPFPQKLKFREPQREERICLVTTNFQTKSMSSMVSDTSCTFPSGDGIFWKHWIQTKDGQCGSPLVSTRDGFIVGIHSASNFTNTNNYFTSVPKNFMELLTNQEAQQWVSGWRLNADSVLWGGHKVFMVKPEEPFQPVKEATQL [D69L] | 0.0879 | 0.052 | 0.074 |  | 0.0574 |  | 0.0695 | 0.0675 | 0.0637 | 0.0765 | 0.064 | 0.0585 | 0.0738 |  | 0.055 | 0.0535 | 0.0596 | 0.106 | 0.0573 |
| MGESLFKGPRDYNPISSSICHLTNESDGHTTSLYGIGFGPFIITNKHLFRRNNGTLVVQSLHGVFKVKDTTDLQQHLVDGRDMIIIRMPKDFPPFPQKLKFREPQREERICLVTTNFQTKSMSSMVSDTSCTFPSGDGIFWKHWIQTKDGQCGSPLVSTRDGFIVGIHSASNFTNTNNYFTSVPKNFMELLTNQEAQQWVSGWRLNADSVLWGGHKVFMVKPEEPFQPVKEATQL [T72D] | 0.107 |  | 0.104 | 0.0615 |  | 0.0887 |  |  | 0.0595 | 0.0931 | 0.0737 | 0.0668 | 0.067 | 0.0762 | 0.11 | 0.07 | 0.054 | 0.0673 |  |
| MGESLFKGPRDYNPISSSICHLTNESDGHTTSLYGIGFGPFIITNKHLFRRNNGTLVVQSLHGVFKVKDTTTLQCHLVDGRDMIIIRMPKDFPPFPQKLKFREPQREERICLVTTNFQTKSMSSMVSDTSCTFPSGDGIFWKHWIQTKDGQCGSPLVSTRDGFIVGIHSASNFTNTNNYFTSVPKNFMELLTNQEAQQWVSGWRLNADSVLWGGHKVFMVKPEEPFQPVKEATQL [Q75C] | 0.13 |  | 0.137 | 0.0781 | 0.0559 | 0.0766 | 0.0611 | 0.0485 | 0.0568 | 0.0978 | 0.0528 | 0.0617 | 0.064 | 0.0693 | 0.0685 | 0.0606 | 0.0616 | 0.087 |  |
